Measured values reported in the supplement of paper PMC4967469.
pIC50: −log10 of the molar value. A lower IC50 marks a more sensitive line; fits outside the tested doses are given as limits. AUC, from the same fit, is the share of area under the viability curve across the 256-fold dose range; it is 1 without any effect and falls as sensitivity rises. For some assays here: Where the top dose is marked as inferred, it comes from the curve model; the source does not state it.

Experiments:
Assay in all cases: Viability of human cancer cell lines after 72 h of drug (GDSC screen)
[1] = compound: CC(C)(C)c1nc(-c2cccc(NS(=O)(=O)c3c(F)cccc3F)c2F)c(-c2ccnc(N)n2)s1 [Dabrafenib]; settings: top dose 10 µM
Method: (§1)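 Human cancer cell lines in 384-well plates, medium with 10% serum, drug for 72 h over a 256-fold dose range (nine 2-fold or five 4-fold steps up to the top dose). Adherent lines were fixed and stained with the nucleic acid dye Syto60, suspension lines read with resazurin; signal relative to control wells, capped at 0 and 100%. One two-parameter sigmoid per drug and line, fitted in a mixed model over all curves with the slope shared within a line.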

[2] = compound: CCc1c2c(nc3ccc(O)cc13)-c1cc3c(c(=O)n1C2)COC(=O)[C@]3(O)CC [SN-38]; settings: top dose 0.05 µM; top dose inferred
Method: as §1

[3] = compound: CN(Cc1cnc2nc(N)nc(N)c2n1)c1ccc(C(=O)N[C@@H](CCC(=O)O)C(=O)O)cc1 [Methotrexate]; settings: top dose 0.2 µM
Method: as §1

[4] = compound: CNC(=O)c1ccccc1Sc1ccc2c(/C=C/c3ccccn3)n[nH]c2c1 [Axitinib]; settings: top dose 2 µM
Method: as §1

[5] = compound: O=C(CCCCCCC(=O)Nc1ccccc1)NO [Vorinostat]; settings: top dose 10 µM
Method: as §1

| Cell Line | AUC [1] | pIC50 [1] | AUC [2] | pIC50 [2] | AUC [3] | pIC50 [3] | AUC [4] | pIC50 [4] | AUC [5] | pIC50 [5] |
| --- | --- | --- | --- | --- | --- | --- | --- | --- | --- | --- |
| JHOS-4 (ovary, adherent) | 0.973 | < 5.00 | 0.747 | 7.65 | 0.974 | < 6.70 | 0.957 | < 5.70 | 0.832 | < 5.00 |
| JHU-022 (head and neck, adherent) | 0.905 | < 5.00 | 0.614 | 8.15 | 0.948 | < 6.70 | 0.862 | < 5.70 | 0.595 | 5.91 |
| JHU-029 (head and neck, adherent) | 0.964 | < 5.00 | 0.485 | 8.55 | 0.945 | < 6.70 | 0.928 | < 5.70 | 0.615 | 5.85 |
| JJN-3 (haematopoietic neoplasm, suspension) | 0.908 | 5.03 | 0.884 | 7.43 | 0.963 | < 6.70 | 0.947 | < 5.70 | 0.519 | 6.16 |
| JURL-MK1 (chronic myeloid leukaemia, suspension) | 0.801 | 5.32 | 0.646 | 8.10 | 0.757 | 7.16 | 0.457 | 7.02 | 0.598 | 5.94 |
| JVM-2 (lymphoid neoplasm, suspension) | 0.611 | 5.87 | 0.415 | 8.76 | 0.653 | 7.43 | 0.982 | < 5.70 | 0.701 | 5.58 |
| JVM-3 (lymphoid neoplasm, suspension) | 0.754 | 5.47 | 0.384 | 8.83 | 0.553 | 7.76 | 0.822 | 5.92 | 0.436 | 6.38 |
| K2 (melanoma, adherent) | 0.159 | > 7.41 | 0.739 | 7.73 | 0.982 | < 6.70 | 0.868 | < 5.70 | 0.744 | 5.41 |
| K5 (thyroid, adherent) | 0.061 | > 7.41 | 0.579 | 8.29 | 0.765 | 7.15 | 0.978 | < 5.70 | 0.69 | 5.68 |
| KARPAS-45 (lymphoblastic leukaemia, suspension) | 0.989 | < 5.00 | 0.98 | < 7.30 | 0.964 | < 6.70 | 0.896 | 5.76 | 0.349 | 6.59 |
| KARPAS-231 (B-cell leukaemia, suspension) | 0.994 | < 5.00 | 0.357 | 8.86 | 0.569 | 7.74 | 0.926 | 5.71 | 0.461 | 6.30 |
| KARPAS-422 (B-cell lymphoma, suspension) | 0.851 | 5.12 | 0.838 | 7.48 | 0.916 | < 6.70 | 0.971 | < 5.70 | 0.619 | 5.88 |
| KARPAS-620 (haematopoietic neoplasm, suspension) | 0.913 | < 5.00 | 0.957 | < 7.30 | 0.899 | 6.72 | 0.925 | < 5.70 | 0.669 | 5.77 |
| KATOIII (stomach, semi-adherent) | 0.983 | < 5.00 | 0.959 | < 7.30 | 0.969 | < 6.70 | 0.595 | 6.65 | 0.705 | 5.65 |
| KCL-22 (chronic myeloid leukaemia, suspension) | 0.892 | 5.07 | 0.814 | 7.66 | 0.684 | 7.43 | 0.74 | 6.28 | 0.674 | 5.76 |
| KE-37 (lymphoblastic leukaemia, suspension) | 0.532 | 6.13 | 0.377 | 8.81 | 0.49 | 7.93 | 0.923 | 5.74 | 0.538 | 6.11 |
| KINGS-1 (glioma, adherent) | 0.865 | < 5.00 | 0.861 | < 7.30 | 0.878 | < 6.70 | 0.936 | < 5.70 | 0.821 | 5.05 |
| KLE (endometrium, adherent) | 0.915 | < 5.00 | 0.925 | < 7.30 | 0.952 | < 6.70 | 0.978 | < 5.70 | 0.854 | < 5.00 |
| KMOE-2 (acute myeloid leukaemia, suspension) | 0.797 | 5.38 | 0.796 | 7.69 | 0.636 | 7.55 | 0.933 | < 5.70 | 0.434 | 6.38 |
| KMS-11 (myeloma, suspension) | 0.957 | < 5.00 | 0.965 | < 7.30 | 0.772 | 7.18 | 0.977 | < 5.70 | 0.704 | 5.67 |
| KNS-42 (glioma, adherent) | 0.909 | < 5.00 | 0.771 | 7.64 | 0.983 | < 6.70 | 0.981 | < 5.70 | 0.907 | < 5.00 |
| KNS-81-FD (glioma, adherent) | 0.897 | < 5.00 | 0.625 | 8.11 | 0.965 | < 6.70 | 0.962 | < 5.70 | 0.89 | < 5.00 |
| KP-1N (pancreas, adherent) | 0.956 | < 5.00 | 0.889 | < 7.30 | 0.858 | 6.75 | 0.969 | < 5.70 | 0.897 | < 5.00 |
| KP-2 (pancreas, adherent) | 0.934 | < 5.00 | 0.865 | 7.30 | 0.963 | < 6.70 | 0.986 | < 5.70 | 0.85 | 5.07 |
| KP-3 (pancreas, adherent) | 0.858 | < 5.00 | 0.909 | < 7.30 | 0.91 | < 6.70 | 0.973 | < 5.70 | 0.864 | < 5.00 |
| KP-N-YN (neuroblastoma, adherent) | 0.983 | < 5.00 | 0.764 | 7.70 | 0.986 | < 6.70 | 0.969 | < 5.70 | 0.801 | 5.27 |

| Cell Line | AUC [1] | pIC50 [1] | AUC [2] | pIC50 [2] | AUC [3] | pIC50 [3] | AUC [4] | pIC50 [4] | AUC [5] | pIC50 [5] |
| --- | --- | --- | --- | --- | --- | --- | --- | --- | --- | --- |
| KS-1 (glioma, adherent) | 0.977 | < 5.00 | 0.74 | 7.74 | 0.977 | < 6.70 | 0.942 | < 5.70 | 0.83 | 5.07 |
| KU-19-19 (bladder, adherent) | 0.617 | 5.88 | 0.406 | 8.76 | 0.925 | < 6.70 | 0.987 | < 5.70 | 0.74 | 5.52 |
| KYAE-1 (oesophagus, suspension) | 0.976 | < 5.00 | 0.93 | < 7.30 | 0.948 | < 6.70 | 0.973 | < 5.70 | 0.571 | 6.00 |
| KYM-1 (rhabdomyosarcoma, adherent) | 0.98 | < 5.00 | 0.63 | 8.17 | 0.972 | < 6.70 | 0.93 | < 5.70 | 0.724 | 5.62 |
| KYSE-50 (oesophagus, adherent) | 0.973 | < 5.00 | 0.832 | 7.55 | 0.953 | < 6.70 | 0.99 | < 5.70 | 0.767 | 5.47 |
| KYSE-70 (oesophagus, adherent) | 0.984 | < 5.00 | 0.906 | < 7.30 | 0.967 | < 6.70 | 0.987 | < 5.70 | 0.786 | 5.33 |
| KYSE-150 (oesophagus, adherent) | 0.988 | < 5.00 | 0.923 | < 7.30 | 0.807 | 7.01 | 0.988 | < 5.70 | 0.911 | < 5.00 |
| KYSE-510 (oesophagus, adherent) | 0.988 | < 5.00 | 0.632 | 8.17 | 0.77 | 7.19 | 0.97 | < 5.70 | 0.799 | 5.41 |
| KYSE-520 (oesophagus, adherent) | 0.979 | < 5.00 | 0.873 | < 7.30 | 0.969 | < 6.70 | 0.969 | < 5.70 | 0.815 | 5.09 |
| L-428 (Hodgkin lymphoma, suspension) | 0.989 | < 5.00 | 0.944 | < 7.30 | 0.722 | 7.31 | 0.983 | < 5.70 | 0.651 | 5.81 |
| L-540 (Hodgkin lymphoma, suspension) | 0.619 | 5.89 | 0.422 | 8.71 | 0.416 | 8.12 | 0.915 | < 5.70 | 0.659 | 5.79 |
| L-1236 (Hodgkin lymphoma, suspension) | 0.988 | < 5.00 | 0.882 | 7.41 | 0.804 | 7.08 | 0.992 | < 5.70 | 0.595 | 5.96 |
| LAMA-84 (chronic myeloid leukaemia, suspension) | 0.94 | < 5.00 | 0.944 | < 7.30 | 0.488 | 7.94 | 0.393 | 7.20 | 0.422 | 6.42 |
| LAN-6 (neuroblastoma, adherent) | 0.982 | < 5.00 | 0.896 | < 7.30 | 0.95 | < 6.70 | 0.959 | < 5.70 | 0.83 | 5.10 |
| LB373-MEL-D (melanoma, adherent) | 0.989 | < 5.00 | 0.939 | < 7.30 | 0.99 | < 6.70 | 0.973 | < 5.70 | 0.807 | 5.30 |
| LB647-SCLC (small cell lung carcinoma, semi-adherent) | 0.983 | < 5.00 | 0.882 | < 7.30 | 0.945 | < 6.70 | 0.882 | < 5.70 | 0.508 | 6.18 |
| LB771-HNC (head and neck, adherent) | 0.956 | < 5.00 | 0.905 | < 7.30 | 0.982 | < 6.70 | 0.885 | < 5.70 | 0.897 | < 5.00 |
| LB831-BLC (bladder, adherent) | 0.979 | < 5.00 | 0.697 | 7.95 | 0.956 | < 6.70 | 0.987 | < 5.70 | 0.872 | 5.01 |
| LB1047-RCC (kidney, adherent) | 0.511 | 6.17 | 0.651 | 8.06 | 0.981 | < 6.70 | 0.898 | < 5.70 | 0.629 | 5.83 |
| LB2518-MEL (melanoma, adherent) | 0.97 | < 5.00 | 0.909 | < 7.30 | 0.975 | < 6.70 | 0.987 | < 5.70 | 0.761 | 5.43 |
| LC4-1 (lymphoblastic leukaemia, suspension) | 0.945 | < 5.00 | 0.57 | 8.31 | 0.985 | < 6.70 | 0.973 | < 5.70 | 0.804 | 5.25 |
| LC-1-sq (lung squamous cell carcinoma, adherent) | 0.983 | < 5.00 | 0.858 | < 7.30 | 0.951 | < 6.70 | 0.921 | < 5.70 | 0.493 | 6.22 |
| LCLC-103H (large cell lung carcinoma, adherent) | 0.99 | < 5.00 | 0.977 | < 7.30 | 0.826 | 6.97 | 0.952 | < 5.70 | 0.745 |  |
| LK-2 (lung squamous cell carcinoma, adherent) | 0.985 | < 5.00 | 0.726 | 7.88 | 0.913 | < 6.70 | 0.909 | < 5.70 | 0.749 | 5.51 |
| LN-18 (glioma, adherent) | 0.992 | < 5.00 | 0.842 | 7.59 | 0.907 | 6.74 | 0.978 | < 5.70 | 0.787 | 5.46 |
